Measurements from PubChem BioAssay (NCATS).
“And” between values parts separate entries of the source, which are not always exact repeats. Equal entries are not always repeated. Some of the results follow. Shown are side measurements of this screen, not its main read-out; they come without a call. Compounds called inactive in the main read-out are mostly missing here. The note in brackets gives the kind of curve behind each potency; many fits are weak.

Test: qHTS Assay for Lipid Storage Modulators (AID 1519)
Details: Drosophila S3 cells, BODIPY lipid droplet/cell ratio, laser cytometry, cells loaded with oleic acid
Procedure, shortened: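 Cells seeded at 5,000 per well were treated with compounds over a concentration series and loaded with oleic acid (400 uM, as added). Lipid droplet fluorescence (488 nm excitation, 500-530 nm channel) was read by laser-scanning cytometry and normalized to 20 uM Triacsin C.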

[1] = measured here: cell count channel max response
[2] = measured here: cell number channel AC50
[3] = measured here: lipid (BODIPY) channel AC50
[4] = measured here: lipid channel max response
Tags describe the fitted curve by direction and shape.

With `COc1cc2c(C=O)c3c4c(cc(OC)c(OC)c4c2cc1OC)CCN3C` the max response [1] was 95.1%, the AC50 [2] was 891 nM [rising, full curve] and the AC50 [3] was 708 nM [rising, full curve]. For the same molecule, the max response [4] was 101%.

In the case of `C[C@@H](/C=C\c1cccc(Oc2ccc(F)cc2)c1)N(O)C(N)=O`, the max response [1] is reported as 59.6%, the AC50 [2] is reported as 3160 nM [rising, full curve] and the AC50 [3] is reported as 3550 nM [rising, full curve]. It also gave a max response [4] of 81.4%.

For `CC(C)(C)c1cc(O)c(C(C)(C)C)cc1O`, the max response [1] was 88.2%, the AC50 [2] was 15800 nM [rising, partial curve, poor fit] and the AC50 [3] was 12600 nM [rising, partial curve, poor fit]. It also gave a max response [4] of 89%.

With `COCCn1c(=O)c(-c2cccc(C#N)c2)nc2cnc(N3CCNCC3)nc21` the max response [1] was 6.04%, the AC50 [2] was 3980 nM [rising, partial curve] and the AC50 [3] was 2510 nM [rising, partial curve]. For the same molecule, the max response [4] was 9.79%.

With `O=C(c1cccc(F)c1)N1CCC[C@@]2(CCN(Cc3ccncc3)C2)C1` the max response [1] was 11.6%, the AC50 [2] was 63.1 nM [rising, full curve, poor fit] and the AC50 [3] was 50.1 nM [rising, full curve, poor fit]. The max response [4] was 15.8%.

In the case of `COc1cccc(Cn2c(=O)c(-c3ccc(Cl)cc3)nc3cnc(OC)nc32)c1`, the max response [1] is reported as 26%, the AC50 [2] is reported as 2510 nM [rising, full curve, poor fit] and the AC50 [3] is reported as 1410 nM [rising, full curve, poor fit]. For the same molecule, the max response [4] was 33.3%.

For `CNc1ncnc2ccc(-c3ccccc3C#N)cc12`, the max response [1] was 33.3%, the AC50 [2] was 1120 nM [rising, partial curve, poor fit] and the AC50 [3] was 282 nM [rising, partial curve, poor fit]. The max response [4] was 41.7%.

In the case of `O=C(O)Cc1nn(Cc2ccc(Br)cc2F)c(=O)c2ccccc12`, the max response [1] is reported as 52.7%, the AC50 [2] is reported as 15800 nM [rising, partial curve, poor fit] and the AC50 [3] is reported as 25100 nM [rising, partial curve, poor fit]. It also gave a max response [4] of 89.6%.

For `COc1cccc2oc(-c3ccc(O)cc3)cc(=O)c12`, the max response [1] was 123%, the AC50 [2] was 7940 nM [rising, partial curve] and the AC50 [3] was 10000 nM [rising, partial curve]. For the same molecule, the max response [4] was 158%.

In the case of `Cc1cnc(CNc2cc(-c3cccnc3)ncn2)cn1`, the max response [1] is reported as 39.2%, the AC50 [2] is reported as 1580 nM [rising, full curve, poor fit] and the AC50 [3] is reported as 3160 nM [rising, partial curve, poor fit]. It also gave a max response [4] of 48.2%.

With `Cc1nc2cnc(Oc3cccc(Cl)c3)nc2n(C[C@H]2CCCO2)c1=O` the max response [1] was -2.05%, the AC50 [2] was 4470 nM [rising, partial curve, poor fit] and the AC50 [3] was 1780 nM [rising, partial curve]. It also gave a max response [4] of -0.119%.

In the case of `COc1c2ccoc2cc2oc(C)cc(=O)c12`, the max response [1] is reported as 40.1%, the AC50 [2] is reported as 1120 nM [rising, partial curve, poor fit] and the AC50 [3] is reported as 2000 nM [rising, partial curve, poor fit]. For the same molecule, the max response [4] was 57.4%.

With `c1ccc2c(NCCN3CCOCC3)nc(-c3ccc4c(c3)OCO4)nc2c1` the max response [1] was 55.2%, the AC50 [2] was 7.94 nM [rising, full curve, poor fit] and the AC50 [3] was 10 nM [rising, full curve]. The max response [4] was 60.6%.

With `CC(=O)NCCNc1ncnc2ccc(-c3ccc4c(c3)OCO4)cc12` the max response [1] was 25.3%, the AC50 [2] was 5.01 nM [rising, full curve, poor fit] and the AC50 [3] was 5.62 nM [rising, full curve, poor fit]. For the same molecule, the max response [4] was 35%.

For `Cc1noc(C)c1-c1ccc2ncnc(Nc3ccccc3)c2c1`, the max response [1] was 32.7%, the AC50 [2] was 6310 nM [rising, partial curve, poor fit] and the AC50 [3] was 6310 nM [rising, partial curve, poor fit]. For the same molecule, the max response [4] was 45.1%.

In the case of `O=c1c(-c2cccc(Cl)c2)nc2cncnc2n1Cc1ccc(F)cc1`, the max response [1] is reported as 10.9%, the AC50 [2] is reported as 5620 nM [rising, partial curve, poor fit] and the AC50 [3] is reported as 1780 nM [rising, partial curve]. It also gave a max response [4] of 2.45%.

In the case of `CCCCCCCCCCCCCCCC(=O)NCCO`, the max response [1] is reported as -34% and 56.3%, the AC50 [2] is reported as 3550 nM [falling, partial curve, poor fit] and the AC50 [3] is reported as 1410 nM [falling, full curve, poor fit]. For the same molecule, the max response [4] was -42.5% and 56.4%.

With `COC1=CC(=O)C=C(OC)C1=O` the max response [1] was -66.9%, the AC50 [2] was 28200 nM [falling, partial curve] and the AC50 [3] was 28200 nM [falling, partial curve]. The max response [4] was -84%.

With `N#Cc1cccc(-c2cc(NCc3cccnc3)ncn2)c1` the max response [1] was 32.1%, the AC50 [2] was 708 nM [rising, full curve, poor fit] and the AC50 [3] was 631 nM [rising, full curve]. For the same molecule, the max response [4] was 38%.

For `COc1ccccc1-c1nc(Nc2ccncc2)c2ccccc2n1`, the max response [1] was 30%, the AC50 [2] was 501 nM [rising, full curve] and the AC50 [3] was 501 nM [rising, full curve]. The max response [4] was 37%.
